In paper PMC7819943, “Rice protein-binding microarrays: a tool to detect cis-acting elements near promoter regions in rice”:
The other results are listed elsewhere or left out.

Molecular target: T1, OsWOX13 (Oryza sativa, UniProt Q5QMM3 1-267)
T1 sequence: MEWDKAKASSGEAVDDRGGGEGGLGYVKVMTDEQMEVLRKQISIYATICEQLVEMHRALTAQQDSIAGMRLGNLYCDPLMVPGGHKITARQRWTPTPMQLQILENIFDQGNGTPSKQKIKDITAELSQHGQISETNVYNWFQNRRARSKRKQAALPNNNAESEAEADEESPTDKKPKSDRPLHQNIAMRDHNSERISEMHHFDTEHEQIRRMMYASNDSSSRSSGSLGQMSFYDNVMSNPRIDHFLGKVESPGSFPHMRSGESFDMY
Assay: protein-binding microarray (RPBM); PBS, 2% BSA, 51.3 ng/ul salmon testes DNA, 50 uM zinc acetate, 200 nM TF, 25 C, 1 h; high values mean tight binding
Conditions: protein: recombinant; tags: N-terminal polyhistidine and DsRed monomer fusion (pET32a); label: CyDye5-dUTP incorporated in the synthesized complementary strand; 3' TTTTT single-stranded linker to array surface; dsDNA, one strand shown
Summary of the method: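 Per-feature fluorescence intensity (arbitrary units), read on an Axon 4000B scanner, is the binding signal. Transcription factors carrying an N-terminal polyhistidine tag and DsRed fusion were expressed in E. coli BL21-CodonPlus and purified on Ni–NTA. A custom Agilent array, made double-stranded by primer extension with Cy5-dUTP and blocked with 2% BSA, was incubated with 200 nM protein in PBS, 2% BSA, salmon testes DNA and 50 µM zinc acetate at 25 °C for 1 h and then washed.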

Row | Sequence | binding signal
1 | ATGATCAATTCTATCAATTTATAAAGTTATGGCCAATTTTCGGAGTCACCTAGTGCAG | 11000 fluorescence intensity (a.u.)
2 | TTTTAGATTAGAATCTAAACCAGGCCTAACGTGGTAACGTCGGAGTCACCTAGTGCAG | 17100 fluorescence intensity (a.u.)
3 | TGTCCCAATCAACTGCTTGCATGGCAAATTCATTCAGGTTCGGAGTCACCTAGTGCAG | 11900 fluorescence intensity (a.u.)
4 | TCCAATCAATCTGTAGTATCACCACCATTCACCAATCACCCGGAGTCACCTAGTGCAG | 17500 fluorescence intensity (a.u.)
5 | TACTAATTTAATCCCCTTTGATCTGCTGACTGGTTTACTACGGAGTCACCTAGTGCAG | 19700 fluorescence intensity (a.u.)
6 | GCTAGTCAAATTTGCCTTACTAACTGCTCCGCGTAATTATCGGAGTCACCTAGTGCAG | 7760 fluorescence intensity (a.u.)
7 | TTTAAAGTTATTGATGGTTAAAGTTATAAAAGTTTAACCTCGGAGTCACCTAGTGCAG | 3580 fluorescence intensity (a.u.)
8 | TGTGATTAATTGGTAATCTGCTTTTACAAGCTTCAATTGCCGGAGTCACCTAGTGCAG | 60400 fluorescence intensity (a.u.)
9 | ATAATTAGACTTCTTGTTGCCTTCACCTATTTTAACACATCGGAGTCACCTAGTGCAG | 13000 fluorescence intensity (a.u.)
10 | TGATAATTAGAAGCCAGTGGTTGAAATGGACAGTGTAAGGCGGAGTCACCTAGTGCAG | 28600 fluorescence intensity (a.u.)
11 | ATTTGACGAGGGCCACTTTAATTGCTCCAGGAGCGGAACTCGGAGTCACCTAGTGCAG | 6060 fluorescence intensity (a.u.)
12 | CAGCAAAATTTGACCAAATTTAACACTGGAAATTCAACTACGGAGTCACCTAGTGCAG | 6730 fluorescence intensity (a.u.)
13 | AGTGTGGCATGATAATTATGTGATGTCCAAACAAACACTGCGGAGTCACCTAGTGCAG | 4690 fluorescence intensity (a.u.)
14 | TCTAACTTTTAATAGATTATGCCTCTTGGGACAGTCTGAACGGAGTCACCTAGTGCAG | 15300 fluorescence intensity (a.u.)
15 | CATGACTGCCATTTAGGCTGGAAGTGTAACAAGAAAGCATCGGAGTCACCTAGTGCAG | 18200 fluorescence intensity (a.u.)
16 | CAACTTCCAATCAATAAACACAACTTGAGCTTACAATACACGGAGTCACCTAGTGCAG | 11100 fluorescence intensity (a.u.)
17 | GTTCAATAATCTTCAATCACTAGTTTGATAGTCGGTCCACCGGAGTCACCTAGTGCAG | 35700 fluorescence intensity (a.u.)
18 | ATAATATAAACTAGATTAGAGCCCATTATAATCAGTGTGACGGAGTCACCTAGTGCAG | 5750 fluorescence intensity (a.u.)
19 | CTTCCAACTCGTGATTTGAAAACTTTCAACTCGAGATTTGCGGAGTCACCTAGTGCAG | 3590 fluorescence intensity (a.u.)
20 | ACTATGATTTTAGGTGTAGGAAAATGCGCGCTGATTTTAGCGGAGTCACCTAGTGCAG | 4610 fluorescence intensity (a.u.)
21 | GTTATGATGGGGATAACGAGTTTCAAACACGAAGCACCTGCGGAGTCACCTAGTGCAG | 4630 fluorescence intensity (a.u.)

Row | Sequence | binding signal
22 | GCCCAGTTTACCAATGTTGACGAGCCCAACAAGCCATAAACGGAGTCACCTAGTGCAG | 3520 fluorescence intensity (a.u.)
23 | AGCCAGCCAATCATGTTCGTCTCCTGTTGGAACTTGTAACCGGAGTCACCTAGTGCAG | 10500 fluorescence intensity (a.u.)
24 | GAGTTGATTGGTGTAAGTAATAAACCTATTAGCCGCACAACGGAGTCACCTAGTGCAG | 11100 fluorescence intensity (a.u.)
25 | GCAAAGAGATTAGACTGGACACGAAGGCCTCCCTCTCCTCCGGAGTCACCTAGTGCAG | 5000 fluorescence intensity (a.u.)
26 | CATCCAGCATGCAGTTCATCAATCAGCAATGGCACCTCTGCGGAGTCACCTAGTGCAG | 3280 fluorescence intensity (a.u.)
27 | TGTACATTATTATTGATCACTAATAGCCATATCCAAGCATCGGAGTCACCTAGTGCAG | 7660 fluorescence intensity (a.u.)
28 | GCCACTTTACCATTTTCATCATTTCTTCCATTTTAAGTTTCGGAGTCACCTAGTGCAG | 5000 fluorescence intensity (a.u.)
29 | ATCTTATCTCTATAATTTATATTTAAACTTTCCTCCGAACCGGAGTCACCTAGTGCAG | 4050 fluorescence intensity (a.u.)
30 | GCCCACTCATAATTTCTCCCTTGATTTGTAAAGAAATAAGCGGAGTCACCTAGTGCAG | 16000 fluorescence intensity (a.u.)
31 | ATTGCTAACAACACAATTATCAGTTCCATCAAAGCTATAGCGGAGTCACCTAGTGCAG | 3940 fluorescence intensity (a.u.)
32 | GCATTTGATTGTGCGAGCTGGGTTTACAGCTACACTTATACGGAGTCACCTAGTGCAG | 15900 fluorescence intensity (a.u.)
33 | TCCTGCAAAATAGATTGGCCGCGTGCGTGTGCGTGTCCACCGGAGTCACCTAGTGCAG | 27100 fluorescence intensity (a.u.)
34 | CATGTTACATTTATTGAACCTAATTTTATATTGTGGATGTCGGAGTCACCTAGTGCAG | 3540 fluorescence intensity (a.u.)
35 | CGTCCAATCACAATCCAACGATCCAACCGACGCGAAACCGCGGAGTCACCTAGTGCAG | 20700 fluorescence intensity (a.u.)
36 | ATCTGATTCATCAATAACAAAAGACATTGTTCCAATCCAGCGGAGTCACCTAGTGCAG | 4820 fluorescence intensity (a.u.)
37 | GCGTAATAGTAATAATTGATTAATGGTGACACGAGAAGGACGGAGTCACCTAGTGCAG | 46600 fluorescence intensity (a.u.)
38 | TAGAATTGATGATACTAGCTATAACTTCCGAGTGAGCACACGGAGTCACCTAGTGCAG | 16900 fluorescence intensity (a.u.)
39 | AATAACTGGTTATCTTCATCATTTTGAGCAATAGCGTCGACGGAGTCACCTAGTGCAG | 4970 fluorescence intensity (a.u.)
40 | TTTGATAAACATATCTTACTTTTCTATCTATTCAAACCACCGGAGTCACCTAGTGCAG | 3380 fluorescence intensity (a.u.)
41 | GAGTTATTAATTGAACACATTTCTTCCGTGTGAGATGTGACGGAGTCACCTAGTGCAG | 10700 fluorescence intensity (a.u.)
42 | ACAATTGGCTAATTGTGTGTTGGATTGTTGGGTGTATGAACGGAGTCACCTAGTGCAG | 22600 fluorescence intensity (a.u.)
